Results: patent US20200399238A1, “THERAPEUTIC AURONES” (MIDDLE TENNESSEE STATE UNIVERSITY, priority 2016, published 2020)

Tested on: RAW 264.7 cells
Test: Alamar Blue cell viability assay, RAW 264.7
Assay type: cell-based, murine
Protocol: THP-1 cells were maintained in RPMI 1640 medium supplemented with 10% heat-inactivated FBS and 1% penicillin/streptomycin (complete culture medium) at 37° C. with 5% CO2 supplemented. Cell concentrations were adjusted to desired concentrations for each experiment by centrifugation at 500×g for 5 min and resuspended in complete culture medium with 100 nM of PMA. Cell concentration was adjusted to 5×10^5 cells/ml for all assays with the exception of 2.5×10^5 cells/ml were used for NF-κB nuclear translocation assay. Cells were seeded onto 96-, 24-, or 12-well plates and incubated for 48 to 72 h to allow for differentiation. Cells were washed with serum-free RPMI 1640 medium before each experiment to remove undifferentiated cells. […] Cells were seeded into tissue culture plates at 10% confluence and grown to 80% confluence within 72 h. For live cell microscopy, 1×10^5 cells/ml were seeded into 35 mm glass-bottom (MatTek) dishes 24 h prior to imaging. […]
Following treatment, the relative cell viability was measured by Alamar Blue assay. […] Cell viability was assessed by measuring relative fluorescent units (RFU) on the SpectraMax M2e microplate reader (Molecular Devices Inc., Sunnyvale, Calif., USA) at Ex 560 nm and Em 590 nm. The results were expressed as a percentage relative to LPS alone control cells. The effects of the vehicle control, DMSO, on cell viability were also assessed.

Question: `O=C1/C(=C/c2ccc(CO)o2)Oc2ccccc21` [aurone 1] was tested. Which “RAW 264.7 cell viability (Alamar Blue)” value (100 μM, at least 24 h) did it give?
Answer: Its value is “without apparent toxicity”.

Question: And the “RAW 264.7 cell viability (Alamar Blue)” value (up to and including 100 μM with LPS, 4 h post treatment)?
Answer: Its value is “no effect on viability”.
